Assay results from paper PMC4336329 (PLoS ONE, 2015).
Screen size: about 310,000 compounds; about 14,000 (4.5%) showed an effect of 50% or more. The effect is printed as a negative number. This is one part of the list.

Biological target: human ether-à-go-go-related gene (hERG) potassium channel (human, UniProt Q12809)
Experiment: primary screen, population patch clamp on CHO cells stably expressing hERG
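Further: peak tail current of the secondary pulse compared with the same well before compound.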

human ether-à-go-go-related gene (hERG) potassium channel, sequence (Q12809 whole entry, looked up): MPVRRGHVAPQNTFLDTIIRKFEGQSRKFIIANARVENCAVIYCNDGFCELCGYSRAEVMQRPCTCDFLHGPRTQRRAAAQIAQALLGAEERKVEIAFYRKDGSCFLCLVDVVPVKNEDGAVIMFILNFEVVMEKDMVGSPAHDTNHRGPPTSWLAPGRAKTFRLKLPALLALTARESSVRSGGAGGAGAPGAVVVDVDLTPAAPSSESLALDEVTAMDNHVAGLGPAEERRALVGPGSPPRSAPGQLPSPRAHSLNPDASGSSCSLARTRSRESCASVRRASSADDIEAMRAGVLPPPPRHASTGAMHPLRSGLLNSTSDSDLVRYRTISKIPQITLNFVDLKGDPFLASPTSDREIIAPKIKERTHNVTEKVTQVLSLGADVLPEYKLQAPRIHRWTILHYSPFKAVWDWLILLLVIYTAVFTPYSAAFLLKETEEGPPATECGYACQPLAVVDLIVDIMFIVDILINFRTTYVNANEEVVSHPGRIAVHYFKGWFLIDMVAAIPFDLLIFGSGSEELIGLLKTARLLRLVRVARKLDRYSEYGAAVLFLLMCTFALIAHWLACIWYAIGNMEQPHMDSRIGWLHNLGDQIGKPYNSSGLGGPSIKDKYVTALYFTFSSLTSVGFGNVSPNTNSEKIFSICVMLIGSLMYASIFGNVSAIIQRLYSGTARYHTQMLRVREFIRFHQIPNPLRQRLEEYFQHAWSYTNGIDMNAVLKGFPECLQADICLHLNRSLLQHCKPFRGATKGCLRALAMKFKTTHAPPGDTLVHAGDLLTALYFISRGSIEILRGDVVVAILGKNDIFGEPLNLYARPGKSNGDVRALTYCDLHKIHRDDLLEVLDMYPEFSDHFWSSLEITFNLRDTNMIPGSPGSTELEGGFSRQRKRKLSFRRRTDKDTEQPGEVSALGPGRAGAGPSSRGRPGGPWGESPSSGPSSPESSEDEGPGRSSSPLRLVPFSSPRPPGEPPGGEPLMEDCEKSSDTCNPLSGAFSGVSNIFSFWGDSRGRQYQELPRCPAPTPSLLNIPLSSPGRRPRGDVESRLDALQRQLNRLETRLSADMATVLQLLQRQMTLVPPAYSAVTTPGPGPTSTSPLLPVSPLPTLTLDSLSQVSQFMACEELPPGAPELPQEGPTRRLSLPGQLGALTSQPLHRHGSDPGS

SMILES | hERG current change (%, negative = inhibition) at 10uM
CCOC(=O)c1ccc(Oc2nc(SC)nc(N(C)C)n2)cc1 | -20.7%
O=C(O)C(F)(F)F.O=C1C(Cc2ccccc2)Nc2ncnc(N3CCc4ccccc4C3)c2N1Cc1ccc(Br)cc1 (stereo not shown) | 19.6%
c1ccc(Cn2nnnc2C(c2ccncc2)N2CCOCC2)cc1 (stereo not shown) | -2.65%
Cc1ccc(Nc2nc(Cl)nc(NC(C)(C)C)n2)cc1 | -0.766%
O=[N+]([O-])c1cc([N+](=O)[O-])c(Oc2cc(Cl)ccc2Cl)cc1NC1CCCCCCC1 | 26.5%
Cc1cc(Cl)ccc1OCc1nnc2n1CCCCC2 | -26.1%
Cc1ccccc1CCN(CC(=O)NC1CCCCC1)C(=O)c1csnn1 | 19.3%
CC(C)(C)c1ccc(NC(=O)CSc2nnc(-c3n[nH]c4ccccc34)o2)cc1 | -13.9%
CC(=O)Cn1ncc(N(C)Cc2ccccc2)c(Cl)c1=O | 8.18%
CC(C)n1ncc2c(C(=O)Nc3ccc(S(C)(=O)=O)cc3)cc(C3CC3)nc21 | 17%
CC(CCc1ccccc1)NC(=O)CN1CCN(c2ccc(O)cc2)CC1 (stereo not shown) | -37.1%
C=CCN(CC=C)CCCOc1ccc(C)cc1OC.O=C(O)C(=O)O | -45.1%
CC(=O)c1cccc(N(CC(=O)NCCc2ccccc2)C(=O)c2csnn2)c1 | -3.71%
O=C(CSc1nccc(=O)[nH]1)Nc1ccccc1Sc1ccccc1 | -4.69%
O=C(Nc1cccc(F)c1)c1ccc(Cn2cc([N+](=O)[O-])cn2)o1 | -47.8%
CC1(C)NC(=O)N(CCCCOc2ccc(Cl)cc2)C1=O | -20.8%
O=S(=O)(Cc1ccccc1)C1CCCCC1O (stereo not shown) | 13.2%
CCn1cc(C(=O)N2CCN(Cc3ccc4c(c3)OCO4)CC2)c2cc(OC)c(OC)cc2c1=O | -22.7%
Cc1cccc(C)c1N=C1NN=C(c2ccccc2F)CS1 | -8.23%
COc1ccccc1NC(=O)c1ccc2c(c1)N(CC(=O)NC(C)(C)C)C(=O)C(C)(C)O2 | 4.47%
Cc1c(Cl)cccc1N=C1SCCN1C(=O)CN1C(=O)NC2(CCCC2)C1=O | -16.5%
COc1cc(NC(=O)CS(=O)(=O)c2ccccc2)cc(OC)c1OC | 11.3%

SMILES | hERG current change (%, negative = inhibition) at 10uM
Cc1ccccc1OCc1nnc2c3cnn(C)c3ncn12 | -5.21%
Cc1[nH]c2ccccc2c1/C=N/Nc1nc2ccccc2[nH]1 | 8.33%
O=C(CN1CCN(S(=O)(=O)c2ccc(Cl)s2)CC1)NCc1ccc(Cl)cc1 | -7.53%
CCc1c(O)nc(SCC(=O)Nc2nc3ccccc3s2)n(C2CCCCC2)c1=O | 0.434%
COCCn1c(=NC(=O)CCS(=O)(=O)c2ccccc2)sc2c(OC)ccc(OC)c21 | 5.38%
COc1ccc(N2CCN(S(=O)(=O)c3c(C)[nH]c(C)c3C(=O)N3CCCC3)CC2)cc1 | 7.12%
Cc1cc(C)c(C(=O)N2CCCC(CNS(=O)(=O)N(C)C)C2)o1 (stereo not shown) | 15.8%
O=C(Nc1cccc([N+](=O)[O-])c1)c1cnccn1 | -3.76%
CCCOc1cc(C)c(S(=O)(=O)n2ccc(C)n2)cc1C | -7.88%
Nc1ccc2oc(-c3cccc4ccccc34)nc2c1 | 8.92%
COC(=O)c1ccccc1NC(=O)CCCn1nc([N+](=O)[O-])cc1C | 4.63%
COC(=O)[C@@]1(Cc2ccc(F)cc2)[C@H]2c3cc(C(=O)N4CCCC4)n(Cc4ccc(C(F)(F)F)nc4)c3C[C@H]2CN1C(=O)c1ccccc1 | -8.27%
CC(C)(C)c1ccc(OCC(O)CN2CCN(c3ccccn3)CC2)cc1.Cl (stereo not shown) | -16%
COC(=O)c1sc(N)c(C(=O)OC)c1COC(=O)[C@@H](NS(=O)(=O)c1cccc(Cl)c1)C(C)C | -5.24%
CCOc1ccc(OCC)c(NC(=O)CN2CCN(c3cccc(C)c3C)CC2)c1.Cl | 2.35%
CC1CCN(C(=S)c2cn(Cc3cccc(F)c3)c3ccccc23)CC1 | 19.2%
CC(=O)N1N=C(c2ccncc2)OC1(Cc1ccccc1)Cc1ccccc1 | -48.6%
Cc1nc(C(=O)NNC(=O)c2ccc(Cl)cc2)cs1 | -12.5%
COc1ccc(CNC(=O)C(OC(=O)c2nsc(Cl)c2Cl)C(C)C)cc1 (stereo not shown) | -10.6%
CC(=O)c1ccc(NC(=O)CS(=O)(=O)c2cn(CC(=O)N3CCOCC3)c3ccccc23)cc1 | -58.6%
CN(C(=O)CN(c1ccccc1)S(=O)(=O)c1ccc(F)cc1)C1CCS(=O)(=O)C1 (stereo not shown) | -13.2%
